Source: PubChem BioAssay AID686979 (National Center for Advancing Translational Sciences (NCATS), 2013)
Out of some 420,000 compounds screened, about 50,000 (12%) were called active. This list was built around the results that the source calls inconclusive (neither active nor inactive); the mix of calls is not that of the screen. Calls follow the shape of the dose curve; as a rule, active = well fitted inhibition curve with a large enough effect; inconclusive = small, poorly fitted or top-dose-only effect; inactive = flat fitted curve, though single readings scatter. No potency is given beside an inconclusive call; the fits are too rough.
Potency is read from the fitted curve at half-maximal effect; tags tell the direction and shape of the fitted curve.

Assay: qHTS for Inhibitors of human tyrosyl-DNA phosphodiesterase 1 (TDP1): qHTS in cells in presence of CPT; also: nearly all actives have a fitted effect of over 55% in size
Conditions: chicken DT40 Tdp1-/-;hTDP1 cells + 20 nM CPT, ATP luminescence, 48 h; series mostly up to 46.2 µM
Method in brief: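 Chicken DT40 Tdp1-/- cells stably complemented with human TDP1 were seeded at 400 cells/well in medium containing 20 nM camptothecin, exposed to pin-transferred compounds, and grown at 37 °C for at least 48 hr. Viability was read as ATP luminescence.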
For `O=C1/C(=C\c2ccc(Cl)c(Cl)c2)CN(C(=O)CCN2CCOCC2)C/C1=C/c1ccc(Cl)c(Cl)c1`, the Potency was active: 0.58 µM. In the case of `O=C(CSc1nc2c([nH]c3ccccc32)c(=O)n1-c1ccccc1)c1ccc(Cl)cc1`, the Potency was inconclusive [inhibitor, partial curve]. For `COc1ccc(NC(=S)Nc2ccc(S(N)(=O)=O)cc2)c(OC)c1`, the Potency was “inactive”. With `CCOC(=O)NC(C)N1C(=O)C2C3C=CC(C3)C2C1=O` (stereo unspecified) the Potency was “inactive”. With `CCCC(C(=O)NCc1ccco1)N(Cc1ccco1)C(=O)CNS(=O)(=O)c1ccccc1` (stereo unspecified) the Potency was “inactive”. In the case of `Cc1c(NC(=S)N/N=C/c2ccc(Br)cc2)c(=O)n(-c2ccccc2)n1C`, the Potency was inconclusive [inhibitor, single point]. In the case of `CN(C)c1ccc(-c2ccc3ncnc(NCc4ccccc4)c3c2)cc1`, the Potency was inconclusive [inhibitor, single point]. With `CCOC(=O)c1nn(-c2ccc(F)cc2)c(-c2ccccc2)c1C(=O)c1ccccc1` the Potency was inconclusive [inhibitor, single point]. With `Nc1c(C(=O)NCCc2ccccc2)nnn1CC(=O)Nc1ccc(Cl)cc1` the Potency was “inactive”. With `O=C(COC(=O)/C=C/c1ccc2c(c1)OCO2)Nc1ccc(S(=O)(=O)N2CCCC2)cc1` the Potency was inconclusive [inhibitor, single point]. For `CSc1nc(C)cc(/C=C\c2ccccc2)c1C#N`, the Potency was “inactive”. With `CC(C)N(Cc1cn[nH]c1-c1ccc(-c2ccccc2)cc1)Cc1nccn1C` the Potency was inconclusive [inhibitor, single point]. With `COc1ccccc1NC(=S)N(CCc1nc2cc(C)c(C)cc2[nH]1)Cc1cccnc1` the Potency was inconclusive [inhibitor, single point]. In the case of `CC(C(=O)NC1C=CS(=O)(=O)C1)N1C(=O)/C(=C/c2ccc(Cl)cc2)SC1=S` (stereo unspecified), the Potency was inconclusive [inhibitor, single point]. With `O=C(O)CCC(=O)N1N=C(c2ccc(Br)cc2)CC1c1cccc(Br)c1` (stereo unspecified) the Potency was inconclusive [inhibitor, partial curve]. With `Cc1onc(-c2c(Cl)cccc2Cl)c1C(=O)NCc1ccccn1` the Potency was “inactive”. For `CC(O)c1cccc(NC(=O)Nc2cccc(NC(=O)Nc3cccc(C(C)O)c3)c2)c1` (stereo unspecified), the Potency was “inactive”. With `CCOC(=O)[C@]12CCCC=C1N(CCC1=CCCCC1)C(=O)[C@H](CC(=O)NCCCOC)C2` the Potency was active: 14.6 µM. With `Cc1ccccc1OCCCCn1c(C2CC(=O)N(c3ccccc3Cl)C2)nc2ccccc21` (stereo unspecified) the Potency was inconclusive [inhibitor, single point]. With `COC(=O)N=Nc1c(O)[nH]c2ccc(Br)cc12` the Potency was “inactive”. For `Cc1ccc(Nc2c(-c3ccc(N4CCOCC4)cc3)nc3c(C)cccn23)cc1`, the Potency was active: 16.4 µM. In the case of `O=C(Nc1nc(-c2cccs2)cs1)c1ccc(Cl)s1`, the Potency was inconclusive [inhibitor, single point]. For `O=C(N/N=C/c1sc(N2CCOCC2)nc1-c1ccccc1)c1ccccc1O`, the Potency was “inactive”. In the case of `CCCCCc1nnc(NC(=O)Cn2cnc3ccccc3c2=O)s1`, the Potency was “inactive”. In the case of `CC1=C([N+](=O)[O-])C(c2ccccc2Cl)NC(=O)N1` (stereo unspecified), the Potency was inconclusive [inhibitor, single point]. For `COc1ccc(CCNC(=O)Cn2cccc2C(=O)c2ccccc2)c(OC)c1`, the Potency was inconclusive [inhibitor, partial curve]. In the case of `COc1ccc(CC(=O)Nc2ccc3nc(Nc4cccc(Cl)c4)cc(C)c3c2)cc1`, the Potency was active: 6.51 µM. In the case of `CCCCCOC(=O)C1=C(C)Nc2ncnn2C1c1cccs1` (stereo unspecified), the Potency was inconclusive [inhibitor, single point]. With `O=C(NC(=S)Nc1cccc(Cl)c1N1CCCCC1)c1ccc2c(c1)OCCO2` the Potency was active: 3.26 µM. With `CSCCC(NS(=O)(=O)c1ccc(Cl)cc1)C(=O)OCC(=O)N1CCOCC1` (stereo unspecified) the Potency was “inactive”. In the case of `COc1ccc(CN2CCN(c3ncccn3)CC2)c(OC)c1`, the Potency was “inactive”. For `C=C1CC2C(=O)N(Cc3cc(OC)ccc3OC)C(C(=O)OCC)(C(=O)OCC)C1N2C(=O)OC(C)(C)C` (stereo unspecified), the Potency was active: 20.6 µM. In the case of `Cc1nn2c(N3CCN(C)CC3)c3c(nc2c1-c1ccccc1)CCCC3`, the Potency was inconclusive [inhibitor, single point]. For `COc1ccc(/C=C/C(=O)Nc2cc(C)on2)cc1`, the Potency was inconclusive [inhibitor, single point]. In the case of `O=C1[C@H]2[C@H](C=CC[C@H]2C(=O)N2CCOCC2)CCN1Cc1ccccc1`, the Potency was “inactive”. For `Cc1ccc(NC(=O)C2(C)CCN2C(=O)C2CCCCC2)cc1C` (stereo unspecified), the Potency was inconclusive [inhibitor, single point]. With `COCCNC(=S)N(CCc1c(C)[nH]c2ccc(F)cc12)Cc1ccco1` the Potency was inconclusive [inhibitor, single point]. For `O=C(COC(=O)c1ccc(Br)o1)NCc1ccc(Cl)cc1`, the Potency was “inactive”. In the case of `CC1CCc2sc(C(=O)N(C)CC(=O)Nc3ccc(N4CCOCC4)cc3)cc2C1` (stereo unspecified), the Potency was inconclusive [inhibitor, single point]. In the case of `CCOC(=O)C1Sc2[nH]c(=O)sc2C(c2ccc(Cl)cc2)C1C(=O)OCC` (stereo unspecified), the Potency was inconclusive [inhibitor, single point]. With `Cc1nc(CS(=O)(=O)c2ccccc2)cc(Sc2ccc(Cl)cc2Cl)n1` the Potency was inconclusive [inhibitor, single point]. In the case of `COCc1cccc(-c2csc(C(O)c3ccc(F)c(F)c3)n2)c1` (stereo unspecified), the Potency was inconclusive [inhibitor, single point]. In the case of `Cc1c(Cl)cccc1NC(=O)c1ccco1`, the Potency was “inactive”. For `O=C(Nc1nc(-c2ccc(Cl)s2)cs1)c1ccncc1`, the Potency was active: 9.2 µM. With `Cc1ccc(C(=O)N2CCN(c3ccc(NC(=S)NC(=O)c4cccs4)cc3)CC2)cc1` the Potency was inconclusive [inhibitor, single point]. With `CS(=O)(=O)c1ccc(-c2csc(C(O)(c3ccccc3)C(F)(F)F)n2)cc1` (stereo unspecified) the Potency was inconclusive [inhibitor, single point].
